# Measured values: paper PMC4336329 (PLoS ONE, 2015)
# Out of some 310,000 compounds screened, about 14,000 (4.5%) showed an effect of 50% or more. Effects have a minus sign here. The list shows a part of the results.
# Target: human ether-à-go-go-related gene (hERG) potassium channel (human, UniProt Q12809)
# Assay: primary screen, population patch clamp on CHO cells stably expressing hERG
# 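Note: peak tail current of the secondary pulse compared with the same well before compound.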
# Sequence of human ether-à-go-go-related gene (hERG) potassium channel (Q12809 whole entry, looked up): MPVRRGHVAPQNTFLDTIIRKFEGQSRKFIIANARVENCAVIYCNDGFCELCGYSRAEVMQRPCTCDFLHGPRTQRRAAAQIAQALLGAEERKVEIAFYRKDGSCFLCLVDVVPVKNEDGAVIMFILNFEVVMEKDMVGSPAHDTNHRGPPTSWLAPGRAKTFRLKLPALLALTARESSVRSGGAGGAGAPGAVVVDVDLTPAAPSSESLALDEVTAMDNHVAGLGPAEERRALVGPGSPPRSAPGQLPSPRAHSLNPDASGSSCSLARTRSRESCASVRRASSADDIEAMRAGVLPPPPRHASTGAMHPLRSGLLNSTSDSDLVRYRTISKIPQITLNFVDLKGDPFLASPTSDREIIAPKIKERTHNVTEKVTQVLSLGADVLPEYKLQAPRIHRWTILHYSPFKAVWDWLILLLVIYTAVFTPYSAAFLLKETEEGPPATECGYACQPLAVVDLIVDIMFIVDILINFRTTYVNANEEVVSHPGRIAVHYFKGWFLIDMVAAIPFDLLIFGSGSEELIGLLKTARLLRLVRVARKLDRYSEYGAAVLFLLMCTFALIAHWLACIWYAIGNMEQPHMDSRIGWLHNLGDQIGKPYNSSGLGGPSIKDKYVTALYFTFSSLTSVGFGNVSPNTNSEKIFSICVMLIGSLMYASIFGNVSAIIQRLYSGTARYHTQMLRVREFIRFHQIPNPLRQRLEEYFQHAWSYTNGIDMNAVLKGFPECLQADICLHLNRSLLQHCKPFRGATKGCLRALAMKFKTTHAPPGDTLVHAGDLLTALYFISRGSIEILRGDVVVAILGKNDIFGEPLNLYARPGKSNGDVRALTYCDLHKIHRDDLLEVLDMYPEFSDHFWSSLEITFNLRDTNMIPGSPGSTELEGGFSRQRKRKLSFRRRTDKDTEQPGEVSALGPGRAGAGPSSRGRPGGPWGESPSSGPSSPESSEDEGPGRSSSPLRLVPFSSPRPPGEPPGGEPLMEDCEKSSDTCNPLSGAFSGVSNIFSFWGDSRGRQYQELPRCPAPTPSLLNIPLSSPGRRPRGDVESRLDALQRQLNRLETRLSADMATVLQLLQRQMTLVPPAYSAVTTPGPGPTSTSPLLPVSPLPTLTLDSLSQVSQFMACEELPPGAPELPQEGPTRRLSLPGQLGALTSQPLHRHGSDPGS
row,SMILES,"hERG current change (%, negative = inhibition) at 10uM [%]"
1,O=C(CCN1CCOCC1)Nc1c(-c2ccccc2)c2cc(Br)ccc2[nH]c1=O,-11.9
2,O=c1c2ccsc2ncn1Cc1ccccc1F,5.25
3,O=S(=O)(Cc1cc(Cl)nc(-c2ccccc2)n1)c1ccccc1,8.9
4,Cc1ccc(N2C(=O)C(Cl)=C(N3CCOCC3)C2=O)c(C)c1,14.6
5,CS(=O)(=O)c1sc(C(=O)NC(=S)Nc2ccc(OC(F)(F)F)cc2)c2c1C=CCC2,9.25
6,Cc1ccc(OCCCC(=O)Nc2ccc(S(=O)(=O)Nc3cc(C)on3)cc2)cc1,3.91
7,CCN(CC)C1=NC(=[N+](CC)CC)c2ccccc21.[O-][Cl+3]([O-])([O-])[O-],-11.6
8,O=C(O)C1[C@H]2C(=O)N(C3CCCC3)C[C@]23C=C[C@H]1O3 (stereo partly shown),-28.9
9,COc1ccc(-c2cc(=O)oc(-c3cccc(C)c3)n2)cc1,18.1
10,CCc1nc(-c2ccccc2O)n(-c2ccccc2)n1,8.76
11,O=C(NCCc1ccccc1Cl)c1cc(COc2ccc(F)cc2F)on1,7.59
12,CC(C)(C)C(=O)NCCN1C(=O)S/C(=C\c2ccc([N+](=O)[O-])cc2)C1=O,-22.1
13,Cc1ccccc1CS(=O)(=O)CC1(O)CCN(C(=O)c2cccc(C(F)(F)F)c2)CC1,3.8
14,COc1ccc(N2CCN(CCNC(=O)C3CCN(S(=O)(=O)c4cccs4)CC3)CC2)cc1,-50.7
15,Cc1ccc(NC(=O)c2cccs2)cc1[N+](=O)[O-],3.32
16,O=C(NCCCN1CCOCC1)c1c(O)c2cc(Br)cc(Br)c2[nH]c1=O,-64.6
17,CN(Cc1ccccn1)Cc1nc(-c2ccc(Cl)cc2)no1,-14.6
18,Cc1ccccc1C1c2[nH]c3ccccc3c2CCN1CCCn1cccn1 (stereo not shown),-20.3
19,CCC(=NCc1ccco1)c1c(O)n(Cc2ccccc2)c(=O)[nH]c1=O,-29.7
20,COc1ccc(N2CCN(C(=O)c3ccc(CS(=O)(=O)c4ccc(OC)cc4)o3)CC2)cc1,-64.7
21,CC(=O)N(/N=C1/C(=O)Nc2ccccc21)c1ccccc1,27.3
22,CCN1CCN(C(=O)c2cc(S(=O)(=O)Nc3ccc(S(C)(=O)=O)cc3)ccc2Cl)CC1,14.2
23,CCCCS(=O)(=O)N1CCC(C(=O)NCC2CCCO2)CC1 (stereo not shown),15.3
24,CC(C)NC(=S)NC(c1ccccc1)(c1ccccc1)c1ccccc1,18.1
25,Cc1cccc(-n2ncc3c(N4CCC5(CC4)OCCO5)ncnc32)c1,8.75
26,CCc1cccc(CC)c1NC(=O)c1ccccc1CCc1ccccc1,9.55
27,CCCc1cc(=O)[nH]c(SC(CC)C(=O)Nc2ccccc2C#N)n1 (stereo not shown),-15
28,COc1cc(OC)cc(C(=O)N[C@H](C(=O)OCc2cc(=O)oc3cc(C)ccc23)C(C)C)c1,-19

row,SMILES,"hERG current change (%, negative = inhibition) at 10uM [%]"
1,O=C(CSc1nnnn1-c1ccccc1)CSc1nnnn1-c1ccccc1,-12.2
2,Cc1ccc(N2C(=O)CC(NNC(=O)Cc3ccc(F)cc3)C2=O)cc1Cl (stereo not shown),3.26
3,Cc1ccccc1OCC(=O)OCC(=O)Nc1ccc(S(N)(=O)=O)cc1,-6.13
4,COc1cc(/C=C(\C#N)C(=O)Nc2cccc3ncccc23)cc(OC)c1OC.Cl,9.48
5,O=C(CCN1C(=O)[C@@H]2Cc3ccccc3CN2C1=O)N[C@H](Cc1ccccc1)C(=O)O,7.87
6,CCN1CCN(c2ccc(S(=O)(=O)N3CCOCC3)cc2NC(=O)C(C)Oc2ccc(F)cc2)CC1 (stereo not shown),-57.4
7,COC(=O)C1=C(C)N(CCc2ccc(OC)cc2)C(=O)C1,-20.9
8,Cc1ccc(O)c(C2=NCCNC(C(F)(F)F)=C2)c1,3.37
9,CCOc1cc(/C=C2\SC(=NC)N(C)C2=O)c(Br)cc1OC(C)=O,19.8
10,Cc1ccc(S(=O)(=O)Nc2ccc(O)c(Sc3ncn[nH]3)c2)cc1,19.9
11,O=C(COC(=O)c1cncc(Br)c1)NCc1ccc(F)cc1,12.9
12,O=C1CC(c2ccco2)CC(O)=C1C=Nc1cc(Cl)cc(Cl)c1 (stereo not shown),-12.8
13,CN(C)S(=O)(=O)c1cccc(NC(=O)CO/N=C(\N)c2ccccc2)c1,-0.0551
14,COC(=O)c1ccccc1NC(=O)CN1CCOCC1,5.86
15,CCC(=O)N1CCN(c2ccc(NC(=S)NC(=O)c3cccc([N+](=O)[O-])c3)cc2)CC1,2.13
16,O=C(c1cc2n(n1)C(C(F)(F)F)CC(c1ccco1)N2)N1CCN(c2ccccn2)CC1 (stereo not shown),-3.66
17,O=C(NCC(=O)N1CCN(S(=O)(=O)c2ccccc2F)CC1)c1ccc2ccccc2c1,-12.2
18,CCCC1Nc2ccc(C(=O)O)cc2C2C=CCC12 (stereo not shown),-6.86
19,CC(C)n1cc(CNC(=O)C2CCC(=O)N(Cc3ccccc3F)C2)cn1 (stereo not shown),12.7
20,CCC(C)c1ccc(NC(=S)NCCn2cc(Br)cn2)cc1 (stereo not shown),5.94
21,COc1cccc(N=c2oc3ccc(OC)cc3cc2-c2nc3ccccc3[nH]2)c1,17.2
22,Cc1ccc2nc(-c3ccccc3)oc(=O)c2c1,8.48
23,O=C(Cc1ccccc1)Nc1cccc(N2CCCC2)c1,6.07
24,O=C1CN(C(=S)Nc2ccccc2Cl)CCN1,22.5
25,CN1CCCCC1CCN1c2ccccc2Sc2ccc(S(C)=O)cc21.O=S(=O)(O)c1ccccc1 (stereo not shown),-56
26,O=C(CN1CCOCC1)N/N=C/c1ccc(-c2cccc(Cl)c2Cl)o1,-73.4
27,NC(=O)C1CCN(CC(O)COc2ccc(-c3ccccc3)cc2)CC1 (stereo not shown),-34.4
